Some of the results follow.
These sequences were tested on PF3D7_0420300 AP2 domain 1 (GST-tagged) (assay: gcPBM binding intensity (ln(normalized median fluorescence intensity)); higher = stronger DNA binding).
In short: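 Binding intensity is defined as the maximum Masliner-normalised natural-log median intensity across replicate spots for either probe orientation. It was measured on an Agilent 4 × 180k array of primer-extended double-stranded 36-bp intergenic genomic probes and negative controls, to which GST-tagged P. falciparum DNA-binding domains made in E. coli were applied for 1 h in 1× PBS with 1% milk, 0.2 mg/ml BSA, 0.5% salmon testes DNA and 0.03% Triton X-100. Detection was by Alexa488 anti-GST antibody and scanning at 488 nm.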
In the case of “TTCGATGAATATACAAGTACATATCCTTACGAACTG [XGTACX_site1650]”, the “gcPBM binding intensity (ln)” value is reported as 8.94. With “TTAGTTTATTGGTACTGTACTTTTTTTTTCTCCATT [XGTACX_site8618]” the “gcPBM binding intensity (ln)” value was 9.55. With “TATCATATATGAAGGTGTACGATTTATTATATAAAT [XGTACX_site7010]” the “gcPBM binding intensity (ln)” value was 9.19. With “ATTTTTGAACGGTACAGTACAGAATTTAATTAACCC [XGTACX_site47]” the “gcPBM binding intensity (ln)” value was 9.47. For “TTATTTAAAATTTTTATGCGTATATATATAGGAACA [CACACA_negctrl_site388]”, the “gcPBM binding intensity (ln)” value was 9.12. In the case of “AATTTTTATTTGTACACACATACATATATATTATAT [CACACA_site993]”, the “gcPBM binding intensity (ln)” value is reported as 9.67. In the case of “CACAAAATAAATTAAACACACAACATCATAGATGTA [CACACA_site4619]”, the “gcPBM binding intensity (ln)” value is reported as 9.62. For “TTTATATATTTCATAATACACACGAAAAAAAAAAAA [CACACA_site2970]”, the “gcPBM binding intensity (ln)” value was 9.28. With “TGTCATCATCTTAAATGTACAAAAAGGAAATATAAA [XGTACX_site1529]” the “gcPBM binding intensity (ln)” value was 8.96. With “TTTTTATTTACACTTTTTATTTATATATTATGTACG [CACACA_negctrl_site158]” the “gcPBM binding intensity (ln)” value was 9.42. With “ATATAATCAGCTTCTCTTTTATGCTAAAAAAAAAAA [CACACA_negctrl_site1310]” the “gcPBM binding intensity (ln)” value was 8.73. “ATAAATAATATAAATACACACTAAAAAAAATATATA [CACACA_site4456]” was tested, and the “gcPBM binding intensity (ln)” value was 9.7. With CGTTGGTATTAAAAGGTGCAATGAAATAATATATTA the “gcPBM binding intensity (ln)” value was 9.04. In the case of “AAGATCGCATGAAATGAACACACATAAAAAAAATAT [CACACA_site9353]”, the “gcPBM binding intensity (ln)” value is reported as 9.55. With “AATGTAACAACTTTTTGTACTTAAGAAATAATAAAT [XGTACX_site3310]” the “gcPBM binding intensity (ln)” value was 9.12. “TAAAAAATTATATTCACACACATACCCATATATATA [CACACA_site4458]” was tested, and the “gcPBM binding intensity (ln)” value was 9.73. With “TAAAATTTATAAACTACACACATATATATAGTAATA [CACACA_site3728]” the “gcPBM binding intensity (ln)” value was 9.5. With “TAATTTAGATATATAAAGAATTAAAGTTAACATTCT [CACACA_negctrl_site726]” the “gcPBM binding intensity (ln)” value was 8.96. “TTTTTCAGATCCTATATAGTATCATATAAATTCCAT [CACACA_negctrl_site56]” was tested, and the “gcPBM binding intensity (ln)” value was 9.07. In the case of “TTAAGAAAAAAAAAAAGTACACACATATAATATATA [XGTACX_site6268]”, the “gcPBM binding intensity (ln)” value is reported as 9.72. For “ATATGACTGTTCATTTGTACGTATAATTATATACGT [XGTACX_site3372]”, the “gcPBM binding intensity (ln)” value was 9.33. In the case of “AAATAATATATTCTATATAATAAATTATAAATATAA [GTGCAC_negctrl_site558]”, the “gcPBM binding intensity (ln)” value is reported as 8.92. In the case of “ATATATATATATATATATATATATATATATTATATA [XGTACX_negctrl_site48]”, the “gcPBM binding intensity (ln)” value is reported as 8.89. For “ATACAACTAATAAGTAGTACAATATACATATATTAT [XGTACX_site7086]”, the “gcPBM binding intensity (ln)” value was 9.33.
